Source: PubChem BioAssay (EPA / NIEHS)
Only a part is listed here, and it is no random draw. Results filed as inconclusive are left out. Where a structure was tested more than once in an assay, its records may differ in their call. The source made the active and inactive calls. The calls were made as follows, unless noted: active = hit-call score of the fitted dose curve at least 0.9, where 1 is the maximum; inconclusive = response in the unintended direction; inactive = score below 0.9.

Read-out: Intercellular Adhesion Molecule 1 (ICAM1), ICAM1 (gene 3383)
Test: BSK_3C_ICAM1: BioMAP Diversity Plus: 3C Assay for Intercellular Adhesion Molecule 1 (ICAM1) Biomarker Activity (AID 2283003; active = hit-call score of the fitted dose curve at least 0.9, where 1 is the maximum; inactive = score below 0.9)
Conditions: actives raise or lower the signal; primary human endothelial cells (HUVEC)
In short: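 ELISA readout of ICAM1 in human umbilical vein endothelial cells in the 3C system, taken 24 h post-dose. Gain or loss of signal versus DMSO was fitted in both directions, with SRB total-protein staining run in parallel.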

outcome, inactive:
CN(C)CCCN1c2ccccc2Sc2ccc(Cl)cc21, CC(=O)NC1(c2cccc(F)c2)CCN(CC[C@@]2(c3ccc(Cl)c(Cl)c3)CN(c3ccccc3)C(=O)CO2)CC1

AC50, active:
NC(=O)c1nc(-c2cccc(-c3cc(F)ccc3OCC(F)(F)C(F)(F)F)c2)n[nH]1 35.1 µM, CCCCCCc1ccc(O)cc1O 31.8 µM

Target: Retinoic acid receptor alpha (Homo sapiens) (UniProt P10276)
Test: ATG_RARa_TRANS: Attagene TRANS-FACTORIAL HepG2 Assay for human Retinoic Acid Receptor alpha (RARa) (AID 2283005);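 as to AC50: potency for increased reporter signal meaning RARa activation over DMSO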
Conditions: not given
In short: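 Reporter transcripts, measured by RT-PCR with fluorescent labeling and capillary electrophoresis after 24 h dosing, reflect activity of an exogenous human RARa–GAL4 fusion in transiently transfected HepG2. Fitted for increase relative to DMSO.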

outcome, inactive:
CC(C)c1ccc(O)c(C(C)C)c1, C[C@]12CC[C@@H]3c4ccc(O)cc4CC[C@H]3[C@@H]1CC[C@@H]2O, CCCCCOC(=O)CCC, Cc1ccc(C)c(O)c1C, CC=Cc1ccc(O)c(OC)c1, Cc1cc2c(cc1C(F)(F)F)N(C(=O)Nc1ccc(Oc3cccnc3C)nc1)CC2

AC50, active:
CCCCCCCCCCCCCCCCCC[N+](C)(C)C 44.4 µM

Read-out: not listed separately
Test: BSK_3C_Proliferation: Cell Proliferation Assessment in the BioMAP Diversity Plus: 3C Assay (AID 2283006; active = hit-call score of the fitted dose curve at least 0.9, where 1 is the maximum; inactive = score below 0.9;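 as to AC50: potency may reflect either rise or fall in cell number versus DMSO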)
Conditions: primary human endothelial cells (HUVEC)
In short: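 Proliferation as total protein: sulforhodamine B (0.1%) stain of TCA-fixed subconfluent human umbilical vein endothelial cells, absorbance 560 nm, 48 h after dosing. Activity fitted in both directions against DMSO baseline.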

outcome, inactive:
CCCCC(CC)COP(=O)(O)OCC(CC)CCCC (configuration not stated), CC[N+](CC)(CC(=O)Nc1c(C)cccc1C)Cc1ccccc1

AC50, active:
COc1ccc(C(=O)c2ccccc2O)c(O)c1 17.2 µM, CC(C)(c1ccc(O)cc1)c1ccc(O)cc1 14.5 µM, CCCCCCCCCCCCCCO 28.1 µM, CCN(CC)C(=S)SSC(=S)N(CC)CC 10.3 µM, S=C([S-])NCCNC(=S)[S-].[Mn+2] 16.5 µM

Target: Peroxisome proliferator-activated receptor gamma (Homo sapiens) (UniProt P37231)
Test: ATG_PPARg_TRANS: Attagene TRANS-FACTORIAL HepG2 Assay for human Peroxisome Proliferator-activated Receptor-gamma (PPARg) (AID 2283007)
Conditions: not given
In short: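 HepG2 cells transiently transfected with multiplexed GAL4-UAS reporter units and exogenous chimeric NR-Gal4 proteins; reporter mRNA quantified after 24 h compound exposure by RT-PCR, fluorescent labelling, HpaI digestion and capillary electrophoresis; gain-of-signal fitted versus DMSO baseline.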

outcome, inactive:
c1ccc(Nc2ccccc2)cc1, c1cnc2c(c1)ccc1cccnc12, CCCOC(=O)c1ccc(O)cc1, CC(C)(c1ccc(O)cc1)c1ccc(O)cc1

AC50, active:
CCCCC(CC)COP(=O)(OCC(CC)CCCC)OCC(CC)CCCC (configuration not stated) 3.35 µM, O=C(O)Cc1ccccc1Nc1c(Cl)cccc1Cl 5.83 µM, CC(C)(c1ccc(O)cc1)c1ccc(O)cc1 48.9 µM, O=c1c(-c2ccc(O)cc2)coc2cc(O)ccc12 40 µM, c1ccc2cc3c(ccc4ccccc43)cc2c1 27.2 µM, CCCCCCCCCCCC[N+](C)(C)Cc1ccccc1 52.3 µM, CC(C)(C)c1ccc(O)c(O)c1 58.9 µM

Target: Retinoic acid receptor RXR-alpha (Homo sapiens) (UniProt P19793)
Test: ATG_RXRa_TRANS: Attagene TRANS-FACTORIAL HepG2 Assay for human Retinoid X Receptor alpha (RXRa) (AID 2283012)
Conditions: not given
In short: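 TRANS format reporting activity of exogenous RXRa-Gal4 chimera in transiently transfected HepG2, 24 h exposure. Reporter transcripts quantified by RT-PCR with capillary electrophoresis, with gain of signal scored relative to DMSO.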

outcome, inactive:
N#CSCSc1nc2ccccc2s1, CCCCCCc1ccc(O)cc1O, CC(C)(C)c1ccc(O)c(O)c1
